# In PubChem BioAssay (Tox21):
# The shares of active, inactive and inconclusive entries below differ from those in the screen. A call without a number means that no potency is given here. For some of these results: Potencies of inconclusive entries are doubtful fits and often do not repeat. The source made the active and inactive calls. Unless noted, calls come from the whole dose curve; as a rule, active = well fitted curve in the direction sought with a large enough effect in the repeat runs; inconclusive = weak or mixed curves; inactive = no such curve, though single readings can be large; an effect the other way counts as inactive or inconclusive.
# Experiments:
# [1] = molecular target: Peroxisome proliferator-activated receptor gamma (Homo sapiens) (UniProt P37231); test: qHTS assay to identify small molecule agonists of the peroxisome proliferator-activated receptor gamma (PPARg) signaling pathway (AID 743094; active = well fitted activation curve with a large enough effect in the signal ratio in the repeat runs, not every such curve was filed as active; inconclusive = weak or mixed curves, or effect the other way; inactive = no such curve, though single readings can be large or run the other way; the % refers to the signal ratio; note: potency is the fitted concentration of half-maximal effect); conditions: HEK293H PPARg-UAS-bla, beta-lactamase FRET ratio, 17 h; activation: at 57 µM (top of the series) unless noted
# Method in brief: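 Reporter activation was scored by fluorescence of cleaved LiveBLAzer B/G substrate (1 h, room temperature) in PPARg-bla HEK293H cells previously treated 17 h at 37C with DMSO-dissolved compounds.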
# [2] = molecular target: Peroxisome proliferator-activated receptor delta (Homo sapiens) (UniProt Q03181); test: qHTS assay to identify small molecule antagonists of the peroxisome proliferator-activated receptor delta (PPARd) signaling pathway (AID 743215; active = well fitted inhibition curve with a large enough effect in the signal ratio in the repeat runs, not every such curve was filed as active; inconclusive = weak or mixed curves, or effect the other way; inactive = no such curve, though single readings can be large or run the other way; the % refers to the signal ratio;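 note: cells stimulated with agonist L165041 at 300 nM final during compound exposure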; note: potency is the fitted concentration of half-maximal effect); conditions: HEK293H PPARd-UAS-bla, beta-lactamase FRET ratio, antagonist, 17 h; ratio activity, negative = inhibition: at 62 µM (top of the series) unless noted
# Method in brief: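 Plated HEK293H PPARd-bla cells rested 5 h at 37 C and 5% CO2. Compound, then agonist L165041 at 300 nM final, was added; 17 h at 37 C followed. Substrate loading, 2 h room temperature, fluorescence measured.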
# [3] = qHTS assay to identify small molecule agonists of H2AX - cell viability counter screen (AID 1224847; calls by dose curve; note: nearly all actives have a fitted effect of over 30% in size; note: potency is the fitted concentration of half-maximal effect; for activity change, negative = cytotoxicity: top concentration of the series differs between compounds)
# Method in brief: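 CHO-K1 cells plated overnight at 37C, then exposed 3 h at 37C to compounds at 15 concentrations (0.76% DMSO final). Viability by CellTiter-Glo luminescence after 30 min at room temperature.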
# [4] = qHTS RealTime-Glo MT Cell Viability Assay in HEK293 cells - 24 hour (AID 1224886); note: nearly all actives have a fitted effect of over 50% in size; note: potency is the fitted concentration of half-maximal effect; for activity change, negative = cytotoxicity: top concentration of the series differs between compounds
# Method in brief: (§1)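 Tox21 10K qHTS, HEK293, 600 cells/well, RealTime-Glo reagent co-dispensed with cells; 5 h preincubation, compound by pintool, 37 C, luminescence at 0–40 h.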
# [5] = qHTS RealTime-Glo MT Cell Viability Assay in HEK293 cells - 8 hour (AID 1224887); note: nearly all actives have a fitted effect of over 50% in size; note: potency is the fitted concentration of half-maximal effect; for activity change, negative = cytotoxicity: top concentration of the series differs between compounds
# Method in brief: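 600 HEK293 cells per well, dispensed already mixed with RealTime-Glo MT reagents. Compound dosing came 5 h later. The same wells were read for luminescence at 0, 8, 16, 24, 32 and 40 h of exposure at 37 C.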
# [6] = qHTS assay to identify small molecule agonists of the estrogen receptor beta (ER-beta) signaling pathway - cell viability counter screen (AID 1259380); note: nearly all actives have a fitted effect of over 30% in size; note: potency is the fitted concentration of half-maximal effect
# Method in brief: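 Steps: plate ER-beta-UAS-bla HEK293T cells, rest 6 hr; add compounds in DMSO; incubate 16 hr at 37C, 5% CO2; add FRET substrate 2 hr; add CellTiter-Glo, wait 30 min at room temperature; read luminescence.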
# [7] = qHTS assay for identifying genotoxic compounds that show differential cytotoxicity against isogenic chicken DT40 cell lines with known DNA damage response pathways - wild type cell line (AID 743012); conditions: DT40 wild type chicken cells viability, CellTiter-Glo, 40 h; activity change, negative = cytotoxicity: at 68.4 µM (top of the series) unless noted; note: nearly all actives have a fitted effect of over 60% in size; note: potency is the fitted concentration of half-maximal effect
# Method in brief: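 Luminescent ATP viability signal (CellTiter-Glo, 30 min RT) recorded after wild type DT40 cells were incubated with compounds for 40 h at 37 C/5% CO2.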
# [8] = qHTS assay for identifying genotoxic compounds that show differential cytotoxicity against isogenic chicken DT40 cell lines with known DNA damage response pathways - Rad54/Ku70 mutant cell line (AID 743015); conditions: DT40 Rad54/Ku70 mutant viability, CellTiter-Glo, 40 h; activity change, negative = cytotoxicity: at 66.8 µM (top of the series); note: nearly all actives have a fitted effect of over 60% in size; note: potency is the fitted concentration of half-maximal effect
# [9] = qHTS assay to identify small molecule antagonists of the peroxisome proliferator-activated receptor gamma (PPARg) signaling pathway - cell viability counter screen (AID 743194); conditions: PPARg-bla HEK293H viability, CellTiter-Glo luminescence, 17 h; Potency: co-treated with 50 nM rosiglitazone unless noted; activity change, negative = cytotoxicity: at 62.6 µM (top of the series), co-treated with 50 nM rosiglitazone unless noted; note: nearly all actives have a fitted effect of over 55% in size
# Method in brief: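 Cytotoxicity counter screen in PPARg-bla HEK293H cells, same wells as reporter assay. Compounds plus 50 nM rosiglitazone (final) for 17 h at 37 C, then viability read by CellTiter-Glo luminescence.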
# [10] = qHTS assay to identify small molecule agonists of the peroxisome proliferator-activated receptor delta (PPARd) signaling pathway - cell viability counter screen (AID 743211); conditions: PPARd-bla HEK293H viability, CellTiter-Glo luminescence, 17 h; activity change, negative = cytotoxicity: at 62.6 µM (top of the series); note: nearly all actives have a fitted effect of over 55% in size; note: potency is the fitted concentration of half-maximal effect
# Method in brief: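 PPARd-bla HEK293H cells (3000/well) were pre-incubated 5 h at 37 C, then exposed to compound for 17 h at 37 C. After 2 h with LiveBLAzer substrate, CellTiter-Glo was added to the same wells; luminescence read after 30 min at room temperature.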
# [11] = molecular target: Estrogen receptor beta (Homo sapiens) (UniProt Q92731); test: qHTS assay to identify small molecule agonists of the estrogen receptor beta (ER-beta) signaling pathway (AID 1259377; active = well fitted activation curve with a large enough effect in the signal ratio in the repeat runs, not every such curve was filed as active; inconclusive = weak or mixed curves, or effect the other way; the % refers to the signal ratio); conditions: ER-beta-UAS-bla HEK293T, beta-lactamase FRET ratio, 16 h; activation: at 92.4 µM (top of the series) unless noted
# Method in brief: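 ER-beta-UAS-bla HEK293T cells in medium with 2% charcoal-stripped FBS were exposed to compounds for 16 h at 37C. Beta-lactamase reporter activity was read as fluorescence after 2 h with LiveBLAzer B/G FRET substrate at room temperature.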
# [12] = molecular target: Progesterone receptor (Homo sapiens) (UniProt P06401); test: qHTS assay to identify small molecule agonists of the progesterone receptor (PR) signaling pathway (AID 1346784; calls by dose curve; note: potency is the fitted concentration of half-maximal effect; nearly all actives have a fitted effect of over 30% in size); conditions: PR-UAS-bla HEK293T, beta-lactamase FRET ratio, 16 h; activation: at 92.4 µM (top of the series) unless noted
# Method in brief: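 PR-UAS-bla HEK 293T cells (beta-lactamase reporter under UAS) in 2% charcoal-stripped FBS, dosed with 23 nL compound after 6 hr, incubated 16hr at 37C. LiveBLAzer B/G FRET substrate added, fluorescence read after 2 hours.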
# [13] = qHTS RealTime-Glo MT Cell Viability Assay in HEK293 cells - 32 hour (AID 1224868); note: top concentration of the series differs between compounds; nearly all actives have a fitted effect of over 50% in size
# Method in brief: as §1
# [14] = qHTS assay to identify small molecule antagonists of the estrogen receptor alpha (ER-alpha) signaling pathway - cell viability counter screen (AID 743074; calls by dose curve;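 note: HEK293 cells carrying ER-alpha-UAS-bla reporter stimulated with 17beta-estradiol; nearly all actives have a fitted effect of over 45% in size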; note: potency is the fitted concentration of half-maximal effect)
# [15] = molecular target: Estrogen receptor (Homo sapiens) (UniProt P03372); test: qHTS assay to identify small molecule agonists of the estrogen receptor alpha (ER-alpha) signaling pathway using the BG1 cell line (AID 743079); conditions: BG1Luc4E2 cells, ERE-luciferase agonist, 22 h; activation: at 70.3 µM (top of the series) unless noted; note: nearly all actives have a fitted effect of over 20% in size; note: potency is the fitted concentration of half-maximal effect
# [16] = qHTS assay to identify small molecule antagonists of the retinoic acid receptor (RAR) signaling pathway (AID 1159552; note: potency is the fitted concentration of half-maximal effect; nearly all actives have a fitted effect of over 50% in size)
# Method in brief: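 Retinol signaling pathway inhibitors screened in C3RL4 RARE-luciferase reporter cells seeded overnight at 37 C, then compounds added with 1 uM (final) retinol as pathway substrate. After 6 hr at 37 C, luciferase luminescence read after 30 min at room temperature.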
# [17] = A CellTox Green Cytotoxicity Assay to monitor cytotoxicity in HEK293 cells - 32 hour (AID 1224881); note: nearly all actives have a fitted effect of over 40% in size; note: potency is the fitted concentration of half-maximal effect
# Method in brief: (§2)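 Dead-cell fluorescence measured kinetically: asymmetric cyanine dye, HEK293, 600 cells/well, 5 h settle, 23 nL cpd/DMSO, 37 C, reads 0–40 h every 8 h.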
# [18] = qHTS assay to identify small molecule agonists of H2AX (AID 1224845; active = well fitted activation curve with a large enough effect in the signal ratio in the repeat runs, not every such curve was filed as active; inconclusive = weak or mixed curves; the % refers to the signal ratio); conditions: CHO-K1 phospho-H2AX Ser139 HTRF, 3 h; activation (H2AX phosphorylation): at 154 µM (top of the series) unless noted
# Method in brief: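 Wild-type CHO-K1 cells, plated overnight, exposed 3hr at 37C to 15 concentrations (0.76% DMSO final). Lysed, then HTRF anti-pH2AX (S139) cryptate and anti-H2AX-d2 antibodies, 24 hr room temperature; 665/620 nm emission read.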
# [19] = A CellTox Green Cytotoxicity Assay to monitor cytotoxicity in HEK293 cells - 40 hour (AID 1224871); note: potency is the fitted concentration of half-maximal effect; nearly all actives have a fitted effect of over 45% in size
# Method in brief: as §2
# [20] = Caspase-3/7 induction in CHO-K1 cells by small molecules, qHTS cell viability counter screen (AID 1346979); note: nearly all actives have a fitted effect of over 35% in size; note: potency is the fitted concentration of half-maximal effect
# Method in brief: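 Wild-type CHO-K1 cells (1,500/well) treated with compound after 5 h plating; after 16 h at 37C, viability read as CellTiter-Fluor fluorescence following 1 h reagent incubation, in the same wells as the caspase read.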
# Tags give direction and shape of the fitted curve or compound fluorescence and quenching.
# UniProt P37231, sequence (P37231 whole entry, looked up): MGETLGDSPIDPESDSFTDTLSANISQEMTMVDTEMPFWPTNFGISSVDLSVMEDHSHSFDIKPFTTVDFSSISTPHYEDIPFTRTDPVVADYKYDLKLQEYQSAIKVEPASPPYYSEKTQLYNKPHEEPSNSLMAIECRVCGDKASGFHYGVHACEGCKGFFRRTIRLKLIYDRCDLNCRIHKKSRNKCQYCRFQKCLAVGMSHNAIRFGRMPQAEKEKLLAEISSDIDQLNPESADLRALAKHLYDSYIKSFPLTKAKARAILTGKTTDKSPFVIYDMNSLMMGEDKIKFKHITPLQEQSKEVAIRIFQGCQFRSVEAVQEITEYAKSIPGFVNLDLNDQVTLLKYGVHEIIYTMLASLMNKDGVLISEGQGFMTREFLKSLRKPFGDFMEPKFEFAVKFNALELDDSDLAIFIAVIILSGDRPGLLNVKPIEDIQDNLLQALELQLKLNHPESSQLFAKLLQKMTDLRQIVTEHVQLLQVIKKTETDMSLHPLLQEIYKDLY
# UniProt Q92731, sequence (Q92731 whole entry, looked up): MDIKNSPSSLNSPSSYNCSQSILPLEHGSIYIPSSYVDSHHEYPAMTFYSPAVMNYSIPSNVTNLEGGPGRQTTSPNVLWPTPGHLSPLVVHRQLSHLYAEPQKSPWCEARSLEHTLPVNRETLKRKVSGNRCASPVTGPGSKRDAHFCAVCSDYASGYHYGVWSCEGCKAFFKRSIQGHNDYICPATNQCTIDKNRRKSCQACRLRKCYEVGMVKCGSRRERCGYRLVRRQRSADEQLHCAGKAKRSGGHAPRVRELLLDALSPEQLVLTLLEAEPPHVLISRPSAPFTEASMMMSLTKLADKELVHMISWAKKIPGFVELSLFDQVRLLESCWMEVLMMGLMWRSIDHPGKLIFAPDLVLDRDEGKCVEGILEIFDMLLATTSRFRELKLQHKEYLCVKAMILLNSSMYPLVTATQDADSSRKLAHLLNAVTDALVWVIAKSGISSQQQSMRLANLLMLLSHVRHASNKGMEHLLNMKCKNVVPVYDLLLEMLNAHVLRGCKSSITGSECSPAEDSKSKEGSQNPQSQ
# UniProt P03372, sequence (P03372 whole entry, looked up): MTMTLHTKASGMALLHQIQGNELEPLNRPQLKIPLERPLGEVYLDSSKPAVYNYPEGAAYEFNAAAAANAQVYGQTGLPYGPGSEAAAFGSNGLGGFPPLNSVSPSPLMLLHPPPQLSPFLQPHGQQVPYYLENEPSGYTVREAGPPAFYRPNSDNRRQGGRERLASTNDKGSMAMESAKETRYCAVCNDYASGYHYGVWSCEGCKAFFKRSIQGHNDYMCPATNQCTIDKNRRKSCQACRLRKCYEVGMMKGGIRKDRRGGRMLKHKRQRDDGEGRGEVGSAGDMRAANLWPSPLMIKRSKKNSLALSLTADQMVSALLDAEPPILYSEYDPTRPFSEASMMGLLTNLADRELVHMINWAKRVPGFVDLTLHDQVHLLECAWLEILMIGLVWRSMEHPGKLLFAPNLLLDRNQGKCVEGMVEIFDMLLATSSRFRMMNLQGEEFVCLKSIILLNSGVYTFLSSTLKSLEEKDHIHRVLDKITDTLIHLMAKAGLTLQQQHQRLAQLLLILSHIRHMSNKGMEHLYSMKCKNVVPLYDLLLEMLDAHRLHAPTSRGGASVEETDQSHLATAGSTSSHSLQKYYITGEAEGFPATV
# UniProt Q03181, sequence (Q03181 whole entry, looked up): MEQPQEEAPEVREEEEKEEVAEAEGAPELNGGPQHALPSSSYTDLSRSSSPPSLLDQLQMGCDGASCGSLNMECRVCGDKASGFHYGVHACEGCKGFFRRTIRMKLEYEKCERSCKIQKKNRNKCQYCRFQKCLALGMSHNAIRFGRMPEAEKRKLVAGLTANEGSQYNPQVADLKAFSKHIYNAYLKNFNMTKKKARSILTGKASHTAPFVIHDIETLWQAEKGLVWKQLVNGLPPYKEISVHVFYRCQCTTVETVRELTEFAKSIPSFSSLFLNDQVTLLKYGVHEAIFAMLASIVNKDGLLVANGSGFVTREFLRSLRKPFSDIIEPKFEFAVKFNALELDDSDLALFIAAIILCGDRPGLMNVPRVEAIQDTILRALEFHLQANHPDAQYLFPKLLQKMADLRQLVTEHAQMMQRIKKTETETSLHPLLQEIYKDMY
# UniProt P06401, sequence (P06401 whole entry, looked up): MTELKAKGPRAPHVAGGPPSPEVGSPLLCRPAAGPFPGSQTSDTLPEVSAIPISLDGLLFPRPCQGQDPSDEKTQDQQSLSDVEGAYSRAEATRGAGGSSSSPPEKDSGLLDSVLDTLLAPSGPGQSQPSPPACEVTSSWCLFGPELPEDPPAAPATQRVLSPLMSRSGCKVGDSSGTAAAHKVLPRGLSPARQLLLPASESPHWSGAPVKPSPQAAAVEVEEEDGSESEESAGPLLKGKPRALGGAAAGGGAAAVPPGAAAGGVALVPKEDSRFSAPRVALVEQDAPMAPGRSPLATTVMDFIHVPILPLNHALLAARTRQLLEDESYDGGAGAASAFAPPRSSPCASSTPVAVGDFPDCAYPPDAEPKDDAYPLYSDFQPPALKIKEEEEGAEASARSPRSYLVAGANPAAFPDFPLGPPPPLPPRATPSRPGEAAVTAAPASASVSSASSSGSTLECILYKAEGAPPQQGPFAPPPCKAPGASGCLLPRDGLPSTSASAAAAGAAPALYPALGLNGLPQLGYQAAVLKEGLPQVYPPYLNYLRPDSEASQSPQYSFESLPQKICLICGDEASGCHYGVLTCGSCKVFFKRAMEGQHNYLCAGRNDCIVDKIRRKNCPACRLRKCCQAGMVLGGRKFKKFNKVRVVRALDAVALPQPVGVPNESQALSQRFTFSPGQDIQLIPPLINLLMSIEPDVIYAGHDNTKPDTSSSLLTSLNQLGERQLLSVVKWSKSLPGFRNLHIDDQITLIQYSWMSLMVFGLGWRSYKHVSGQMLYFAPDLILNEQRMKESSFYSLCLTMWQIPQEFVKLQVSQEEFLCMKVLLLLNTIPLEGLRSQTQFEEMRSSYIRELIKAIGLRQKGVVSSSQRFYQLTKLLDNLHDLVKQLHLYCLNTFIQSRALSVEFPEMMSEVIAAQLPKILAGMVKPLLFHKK
compound,measurement,setting,value
ClC(Cl)(Cl)Cl,Potency,[1],inactive
same,"ratio activity, negative = inhibition",[2],inconclusive: 9.2%
same,Potency,[3],inactive
same,Potency,[4],inactive
same,Potency,[5],inactive
same,Potency,[6],inactive
CC12CC1(C)C(=O)N(c1cc(Cl)cc(Cl)c1)C2=O (stereo unspecified),Potency,[7],"inconclusive: 76.6 µM [cytotoxic, single point] and inactive"
same,Potency,[8],"inconclusive: 68.3 µM [cytotoxic, single point]"
same,Potency,[1],"inconclusive: 61.4 µM [fluorescent, single point]"
same,Potency,[9],inactive
same,Potency,[10],"inconclusive: 21.9 µM [cytotoxic, single point]"
same,Potency,[2],"inconclusive: 0.0245 µM [rising, full curve, poor fit]"
same,"ratio activity, negative = inhibition",[2],inconclusive: -59.6%
same,Potency,[5],inactive
same,Potency,[6],"inconclusive: 61.1 µM [cytotoxic, partial curve]"
O=C1CC[C@@]2(O)[C@H]3Cc4ccc(O)c5c4[C@@]2(CCN3CC2CC2)[C@H]1O5,Potency,[7],inactive
same,Potency,[3],inactive
same,Potency,[11],inactive
Nc1cnn(-c2ccccc2)c(=O)c1Cl,Potency,[11],inactive
CCN[C@@H](C)Cc1cccc(C(F)(F)F)c1,Potency,[7],inconclusive: 16.9 µM [cytotoxic]
same,Potency,[6],inactive
same,Potency,[12],"inconclusive: 0.0027 µM [falling, full curve, poor fit]"
CC(C)(C)NCC(O)c1cc(Cl)c(N)c(Cl)c1 (stereo unspecified),Potency,[1],inactive
same,"ratio activity, negative = inhibition",[2],inconclusive: -8.46%
same,Potency,[3],inactive
same,Potency,[13],inactive
CC(Cl)(Cl)Cl,Potency,[1],inactive
CCC[N+](CCC)(CCC)CCC,Potency,[9],inactive
same,Potency,[6],inactive
O=C(Oc1ccc(Br)cc1)N1CCN2CCC1CC2,Potency,[7],"inconclusive: 68.6 µM [cytotoxic, single point]"
same,Potency,[10],inactive
CCC#N,Potency,[14],"inconclusive: 54.5 µM [rising, partial curve, poor fit]"
same,Potency,[9],inactive
same,"ratio activity, negative = inhibition",[2],inconclusive: -4.1% [at 80.4 µM]
same,Potency,[5],inactive
same,activation,[11],inconclusive: 7.77%
CON(C)C(=O)Nc1ccc(Br)cc1,Potency,[2],inactive
COC(=O)[C@@H](N)CCCN/C(N)=N/[N+](=O)[O-],Potency,[14],inactive
CCOC(=O)C(Cl)Cc1cc(-n2nc(C)n(C(F)F)c2=O)c(F)cc1Cl (stereo unspecified),Potency,[15],"inconclusive: 34.4 µM [activator, partial curve, poor fit]"
same,Potency,[16],inconclusive: 77 µM [inhibitor]
same,Potency,[13],inactive
same,Potency,[5],active: 49 µM
same,Potency,[6],inactive
CC[N+]1(CCOC(=O)C(O)(c2ccccc2)c2ccccc2)CCCCC1,Potency,[7],"inconclusive: 33.5 µM [rising, partial curve, poor fit]"
same,Potency,[8],inactive
same,Potency,[14],inactive
same,Potency,[15],active: 8.41 µM
same,Potency,[1],inactive
same,Potency,[10],inactive
CCCSC(=O)N(CCC)CCC,Potency,[17],inactive
same,Potency,[6],inactive
Cc1ccccc1CO[C@@H]1C[C@@]2(C(C)C)CC[C@]1(C)O2,Potency,[10],inactive
same,Potency,[16],"inconclusive: 61.1 µM [inhibitor, partial curve, poor fit]"
same,activation (H2AX phosphorylation),[18],inconclusive: 7.75%
same,Potency,[3],inconclusive: 80 µM [cytotoxic]
same,Potency,[19],"inconclusive: 54.9 µM [activator, single point]"
same,Potency,[17],"inconclusive: 54.9 µM [activator, single point]"
same,Potency,[4],"inconclusive: 21.9 µM [cytotoxic, partial curve, poor fit]"
C=C(Cl)Cl,Potency,[16],"inconclusive: 2.59 µM [inhibitor, single point]"
same,Potency,[20],"inconclusive: 73 µM [rising, partial curve, poor fit]"
O=C(O)CF,Potency,[14],inactive
same,Potency,[15],"inconclusive: 68.6 µM [inhibitor, partial curve, poor fit]"
CCCCCCC(=O)CCCCCC/C=C/C[C@@H](O)[C@H](O)[C@@](N)(CO)C(=O)O,Potency,[1],inactive
same,Potency,[2],inactive
Nc1ncn[nH]1,Potency,[14],"inconclusive: 4.9 µM [cytotoxic, full curve, poor fit]"
same,Potency,[9],inactive
same,Potency,[10],inactive
same,"ratio activity, negative = inhibition",[2],inconclusive: -33.9% [at 80.4 µM]
CCC12COCN1COC2,activation,[15],inconclusive: 12.1% [phenotype inactive]
same,Potency,[20],"inconclusive: 60.7 µM [rising, partial curve, poor fit]"
N#Cc1ccc(N(CC(N)=O)CC(F)(F)F)cc1C(F)(F)F,Potency,[7],"inconclusive: 77 µM [cytotoxic, single point]"
same,Potency,[8],inconclusive: 68.6 µM [cytotoxic]
same,Potency,[1],active: 0.692 µM
O=C(Cl)c1ccccc1F,Potency,[15],inactive
same,Potency,[5],inactive
same,Potency,[20],inactive
